Results are given in words; binding and its absence hold for the method and conditions named. For part of these data: Binding seen in cells or lysates may run through a third protein. Some results given as binding are weak or reduced against the parent protein; the word gives no strength. For part of these data: Where a sequence is shown, tags or fusion partners need not be part of it.

By UniProt entry, the sequences of proteins in these tests, tags left out.
UniProt Q94BT6: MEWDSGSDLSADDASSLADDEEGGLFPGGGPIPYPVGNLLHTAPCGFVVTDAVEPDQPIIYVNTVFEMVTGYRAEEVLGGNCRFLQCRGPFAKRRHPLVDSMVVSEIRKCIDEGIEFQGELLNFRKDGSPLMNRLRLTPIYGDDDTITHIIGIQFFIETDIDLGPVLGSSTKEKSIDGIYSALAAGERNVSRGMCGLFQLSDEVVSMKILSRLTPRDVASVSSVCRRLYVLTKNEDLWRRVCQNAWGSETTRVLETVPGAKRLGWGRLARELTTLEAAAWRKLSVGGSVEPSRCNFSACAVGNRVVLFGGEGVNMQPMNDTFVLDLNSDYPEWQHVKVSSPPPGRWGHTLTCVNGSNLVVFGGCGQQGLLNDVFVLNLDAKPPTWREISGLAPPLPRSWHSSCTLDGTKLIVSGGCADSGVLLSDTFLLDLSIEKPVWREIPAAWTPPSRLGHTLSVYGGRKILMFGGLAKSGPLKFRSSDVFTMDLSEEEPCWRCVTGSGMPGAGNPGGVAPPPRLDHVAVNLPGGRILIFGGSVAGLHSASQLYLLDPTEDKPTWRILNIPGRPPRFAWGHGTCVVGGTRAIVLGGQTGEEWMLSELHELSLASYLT

Test [1] concerns the target T1, CHLH fused with nLUC (Arabidopsis thaliana) (UniProt Q9FNB0).
T1 sequence: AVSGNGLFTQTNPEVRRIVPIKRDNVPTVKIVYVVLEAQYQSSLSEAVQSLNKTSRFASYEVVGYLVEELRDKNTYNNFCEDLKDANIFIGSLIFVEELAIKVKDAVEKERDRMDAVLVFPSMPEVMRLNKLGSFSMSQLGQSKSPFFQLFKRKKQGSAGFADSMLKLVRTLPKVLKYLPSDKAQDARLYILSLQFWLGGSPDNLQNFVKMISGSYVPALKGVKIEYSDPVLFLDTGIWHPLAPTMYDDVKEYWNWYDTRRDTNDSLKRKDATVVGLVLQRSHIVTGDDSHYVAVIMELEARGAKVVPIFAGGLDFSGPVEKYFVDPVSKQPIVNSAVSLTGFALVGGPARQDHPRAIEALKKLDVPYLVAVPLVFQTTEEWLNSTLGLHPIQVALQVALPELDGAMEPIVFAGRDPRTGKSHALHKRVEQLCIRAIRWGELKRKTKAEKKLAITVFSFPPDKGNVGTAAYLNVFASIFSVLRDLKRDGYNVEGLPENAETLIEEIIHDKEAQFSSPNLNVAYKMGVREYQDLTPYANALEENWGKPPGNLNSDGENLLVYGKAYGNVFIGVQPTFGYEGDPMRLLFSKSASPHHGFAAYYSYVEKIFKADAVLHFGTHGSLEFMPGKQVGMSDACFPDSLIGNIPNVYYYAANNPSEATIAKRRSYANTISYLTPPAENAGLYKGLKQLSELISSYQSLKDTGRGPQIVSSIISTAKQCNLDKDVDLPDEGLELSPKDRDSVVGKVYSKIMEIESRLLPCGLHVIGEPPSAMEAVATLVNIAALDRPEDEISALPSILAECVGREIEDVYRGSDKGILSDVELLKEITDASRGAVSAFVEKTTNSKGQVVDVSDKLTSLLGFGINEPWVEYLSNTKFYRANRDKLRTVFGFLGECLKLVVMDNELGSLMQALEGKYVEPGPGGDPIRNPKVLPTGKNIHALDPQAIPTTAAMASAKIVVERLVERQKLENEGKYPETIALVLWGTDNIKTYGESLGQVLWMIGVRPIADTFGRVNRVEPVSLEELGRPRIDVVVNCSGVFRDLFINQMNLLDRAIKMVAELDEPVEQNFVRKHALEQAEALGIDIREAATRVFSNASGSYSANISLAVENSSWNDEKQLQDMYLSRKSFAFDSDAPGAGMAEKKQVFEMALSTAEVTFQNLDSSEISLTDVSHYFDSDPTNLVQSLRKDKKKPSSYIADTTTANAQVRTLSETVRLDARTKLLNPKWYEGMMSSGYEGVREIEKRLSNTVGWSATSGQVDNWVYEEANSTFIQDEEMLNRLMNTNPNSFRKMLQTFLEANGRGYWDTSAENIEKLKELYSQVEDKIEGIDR
The experiment in a line: split reporter; firefly luciferase complementation imaging (LCI) in Nicotiana benthamiana leaves; CHLH-nLUC and ZTL-cLUC; with or without 100 μM (±) ABA for 4 h before imaging.

For test [2], the target named is T2, CHLH/ABAR (Mg-chelatase H subunit/putative ABA receptor), endogenous (Arabidopsis thaliana (endogenous in ZTL-ox plants)) (UniProt Q9FNB0).
T2 sequence: T1 sequence
The test is described as follows: co-IP; protein extracts of ZTL-ox plants immunoprecipitated with anti-CHLH antibody; ZTL-YFP detected with anti-GFP.

In test [3] the target is T3, full-length CHLH with a GST tag at the N-terminus (Arabidopsis thaliana) (UniProt Q9FNB0).
T3 sequence: T1 sequence
The experiment in a line: pull-down; GST-tagged full-length CHLH and MBP-tagged full-length ZTL, purified recombinant proteins, in vitro; who was held is not told; both purified.

In test [4] the target is T4, C-terminus of CHLH (amino acids 692–1,381) fused to the GAL4 DNA binding domain (Arabidopsis thaliana) (UniProt Q9FNB0).
T4 sequence: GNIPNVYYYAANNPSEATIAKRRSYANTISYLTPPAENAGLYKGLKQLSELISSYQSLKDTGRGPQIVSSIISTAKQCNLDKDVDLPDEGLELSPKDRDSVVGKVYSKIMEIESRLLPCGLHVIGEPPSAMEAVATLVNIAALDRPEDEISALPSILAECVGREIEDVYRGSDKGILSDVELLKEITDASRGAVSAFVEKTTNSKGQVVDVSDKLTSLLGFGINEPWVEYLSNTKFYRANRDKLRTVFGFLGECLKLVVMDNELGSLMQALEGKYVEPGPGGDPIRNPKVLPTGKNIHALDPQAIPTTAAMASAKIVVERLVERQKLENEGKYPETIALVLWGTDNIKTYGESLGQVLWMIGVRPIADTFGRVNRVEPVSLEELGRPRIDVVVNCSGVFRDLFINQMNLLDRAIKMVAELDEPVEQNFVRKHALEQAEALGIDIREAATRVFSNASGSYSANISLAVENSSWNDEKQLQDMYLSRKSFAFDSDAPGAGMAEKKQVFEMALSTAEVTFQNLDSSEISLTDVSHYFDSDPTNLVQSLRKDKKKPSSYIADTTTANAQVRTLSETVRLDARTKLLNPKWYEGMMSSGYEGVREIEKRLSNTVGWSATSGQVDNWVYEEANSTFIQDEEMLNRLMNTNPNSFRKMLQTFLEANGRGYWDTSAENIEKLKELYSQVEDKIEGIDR
The test is described as follows: two-hybrid; Matchmaker Gal4 system; CHLH fragments in pGBKT7 and ZTL ORF in pGADT7 in yeast AH109; growth on Leu-Trp-His-Ade-deficient medium, 5-7 days at 30°C.

In test [5] the target is T5, middle fragment of CHLH (amino acids 348–1,038) fused to the GAL4 DNA binding domain (Arabidopsis thaliana) (UniProt Q9FNB0).
T5 sequence: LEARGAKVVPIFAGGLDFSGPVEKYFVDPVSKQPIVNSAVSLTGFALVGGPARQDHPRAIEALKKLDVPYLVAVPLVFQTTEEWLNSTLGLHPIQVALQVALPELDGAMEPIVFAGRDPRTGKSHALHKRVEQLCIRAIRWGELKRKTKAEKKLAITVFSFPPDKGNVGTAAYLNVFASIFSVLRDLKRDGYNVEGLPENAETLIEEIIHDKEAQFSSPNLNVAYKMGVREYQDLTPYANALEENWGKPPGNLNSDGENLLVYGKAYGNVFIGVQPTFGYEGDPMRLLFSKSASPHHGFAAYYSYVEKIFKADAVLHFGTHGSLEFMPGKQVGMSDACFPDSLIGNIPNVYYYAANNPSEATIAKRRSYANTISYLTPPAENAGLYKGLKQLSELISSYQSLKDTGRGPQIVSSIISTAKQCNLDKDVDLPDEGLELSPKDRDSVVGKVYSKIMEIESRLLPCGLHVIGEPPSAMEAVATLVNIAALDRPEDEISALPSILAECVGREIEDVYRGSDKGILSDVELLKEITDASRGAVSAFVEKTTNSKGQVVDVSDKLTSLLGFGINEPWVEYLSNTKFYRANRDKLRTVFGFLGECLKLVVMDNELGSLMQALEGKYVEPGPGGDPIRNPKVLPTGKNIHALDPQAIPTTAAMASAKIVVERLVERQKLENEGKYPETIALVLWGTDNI
Described as above.

Test [6] has as its target T6, N-terminus of CHLH (amino acids 1–691) fused to the GAL4 DNA binding domain (Arabidopsis thaliana) (UniProt Q9FNB0).
T6 sequence: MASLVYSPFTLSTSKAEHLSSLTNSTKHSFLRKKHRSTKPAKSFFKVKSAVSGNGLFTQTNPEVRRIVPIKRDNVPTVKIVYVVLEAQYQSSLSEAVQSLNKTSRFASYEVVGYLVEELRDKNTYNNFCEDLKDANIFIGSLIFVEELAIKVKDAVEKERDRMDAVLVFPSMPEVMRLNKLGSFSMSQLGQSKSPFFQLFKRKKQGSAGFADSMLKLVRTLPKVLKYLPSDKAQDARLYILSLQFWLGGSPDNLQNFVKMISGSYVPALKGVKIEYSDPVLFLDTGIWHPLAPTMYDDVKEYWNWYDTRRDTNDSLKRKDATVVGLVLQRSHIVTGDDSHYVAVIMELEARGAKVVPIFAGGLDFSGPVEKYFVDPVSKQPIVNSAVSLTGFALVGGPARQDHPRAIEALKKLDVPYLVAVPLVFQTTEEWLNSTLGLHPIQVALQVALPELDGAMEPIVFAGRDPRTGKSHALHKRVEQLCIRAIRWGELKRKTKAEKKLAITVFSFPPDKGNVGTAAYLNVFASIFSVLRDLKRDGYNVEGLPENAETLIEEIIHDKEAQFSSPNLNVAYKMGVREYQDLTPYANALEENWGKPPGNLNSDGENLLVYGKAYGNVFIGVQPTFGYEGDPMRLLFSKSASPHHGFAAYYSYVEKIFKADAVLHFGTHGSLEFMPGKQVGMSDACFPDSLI
The test is described as above.

Consider “ZTL fused with cLUC (from UniProt Q94BT6 1-609)”, for which, in test [1], the binding result is recorded as “binds”.

In the case of “ZTL with a YFP tag at the C-terminus, in ZTL-overexpressing plants (ZTL-ox) (from UniProt Q94BT6 1-609)”, in test [2], the binding result is recorded as “binds”.

Regarding “full-length ZTL with an MBP tag at the N-terminus (from UniProt Q94BT6 1-609)”, the binding entry in test [3] is “binds”.

Consider “ZEITLUPE (ZTL) ORF in pGADT7 (from UniProt Q94BT6 1-609)”, for which the binding entry in test [4] is reported as “binds”; in test [5], “binds”; in test [6], “no binding”.

Values taken from paper PMC9513469.
